Among all 110,000 compounds or so, about 230 (0.21%) showed an effect of 50% or more. The list shows a part of the results.
What follows are compounds tested against DPAP1 (Plasmodium falciparum, UniProt Q8IIJ9) (assay: primary screen, percent inhibition; read by cleavage of a fluorogenic dipeptide substrate; higher = more effect of the substance).
DPAP1, sequence (Q8IIJ9 whole entry, looked up): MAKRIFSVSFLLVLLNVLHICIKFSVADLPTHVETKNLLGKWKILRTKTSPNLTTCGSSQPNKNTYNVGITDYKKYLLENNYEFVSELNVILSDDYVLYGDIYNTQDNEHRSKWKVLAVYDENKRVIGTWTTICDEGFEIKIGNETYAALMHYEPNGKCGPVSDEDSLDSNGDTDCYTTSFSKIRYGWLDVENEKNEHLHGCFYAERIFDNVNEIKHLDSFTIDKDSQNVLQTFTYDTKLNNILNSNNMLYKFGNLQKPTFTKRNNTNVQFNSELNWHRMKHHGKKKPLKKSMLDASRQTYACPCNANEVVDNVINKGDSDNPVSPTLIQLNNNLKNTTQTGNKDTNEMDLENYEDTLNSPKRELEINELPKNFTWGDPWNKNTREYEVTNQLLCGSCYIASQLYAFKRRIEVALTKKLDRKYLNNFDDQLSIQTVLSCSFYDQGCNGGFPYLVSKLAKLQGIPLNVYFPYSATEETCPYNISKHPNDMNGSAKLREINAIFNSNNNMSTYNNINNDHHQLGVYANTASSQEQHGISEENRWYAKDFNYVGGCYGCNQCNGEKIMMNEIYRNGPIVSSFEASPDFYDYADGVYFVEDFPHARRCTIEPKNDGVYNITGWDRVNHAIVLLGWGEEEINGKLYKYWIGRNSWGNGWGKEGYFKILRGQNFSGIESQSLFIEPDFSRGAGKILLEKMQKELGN
Design: species or system P. falciparum D10 trophozoite lysates; single well
In the case of Cc1nn(-c2ccc(F)cc2)c(O)c1/C=N/c1cccc(O)c1, the “% Inhibition @ 10 uM” value is reported as -4.41%.
With O=C(O)c1nn2c(C(F)(F)F)cc(-c3cccs3)nc2c1Cl the “% Inhibition @ 10 uM” value was 3.01%.
Cc1nc2ccc(S(=O)(=O)N(C)CC(=O)NC(C)c3ccccc3)cc2s1 (stereo not shown) was tested, and the “% Inhibition @ 10 uM” value was -4.04%.
OCCN(CCO)c1ncnc2c1cnn2-c1cccc(Cl)c1 was tested, and the “% Inhibition @ 10 uM” value was -3.02%.
Cc1nc2c(-c3ccc(F)cc3)c(C)nn2c(C)c1CCC(=O)NCCN1CCOCC1 was tested, and the “% Inhibition @ 10 uM” value was 1.05%.
In the case of Nc1nc2ccccc2n1CCc1ccccc1, the “% Inhibition @ 10 uM” value is reported as 0.472%.
With Cc1ccccc1Cn1c(=O)n(CC(=O)NCc2ccco2)c(=O)c2sccc21 the “% Inhibition @ 10 uM” value was 2.4%.
For CCC[C@H](NC(=O)C1(NC(=O)c2cc3ccccc3s2)CCCCC1)C(=O)c1nc2ccccc2o1, the “% Inhibition @ 10 uM” value was 6.03%.
In the case of CCOc1ccc2nc(SCC(=O)Nc3ccc(OC)cc3OC)c(C#N)cc2c1, the “% Inhibition @ 10 uM” value is reported as 0.658%.
For CCOc1ccccc1-c1nnc(CS(=O)(=O)c2ccccc2)o1, the “% Inhibition @ 10 uM” value was 14.8%.
For CC1CCCN(c2nc3c(c(=O)n(C)c(=O)n3C)n2CC(=O)c2ccc(Br)cc2)C1 (stereo not shown), the “% Inhibition @ 10 uM” value was -3.09%.
In the case of O=C(Nc1cccc(-c2nc3ccccc3s2)c1)c1ccco1, the “% Inhibition @ 10 uM” value is reported as 3.83%.
CC1(C)COC(c2ccccc2)c2ccccc21 (stereo not shown) was tested, and the “% Inhibition @ 10 uM” value was -3.16%.
Brc1ccc(Nc2nc3c(s2)CCCC3)cc1 was tested, and the “% Inhibition @ 10 uM” value was 10.7%.
In the case of Cc1cccc(-c2nc3s/c(=C\c4ccccc4F)c(=O)n3n2)c1, the “% Inhibition @ 10 uM” value is reported as -4.85%.
In the case of c1ccc(CN2CCN(CCCNc3ccc4nncn4n3)CC2)cc1, the “% Inhibition @ 10 uM” value is reported as -6.07%.
For CN(C)c1ccc(C2(CC(=O)Nc3ccc(Br)cc3)C(=O)c3ccccc3C2=O)cc1, the “% Inhibition @ 10 uM” value was -1.02%.
For Cc1ccc(-c2csc(-c3nnn(-c4cccc(Cl)c4)c3N)n2)cc1, the “% Inhibition @ 10 uM” value was -2.41%.
COc1ccc(CN2CSC3=C(C#N)C(c4ccc(C)cc4)CC(=O)N3C2)cc1 (stereo not shown) was tested, and the “% Inhibition @ 10 uM” value was 43.8%.
COc1ccccc1-c1nn(CCC#N)c2nc(C(F)(F)F)cc(C3CC3)c12 was tested, and the “% Inhibition @ 10 uM” value was -1.03%.
In the case of O=c1c2c3c(sc2n2c(S)nnc2n1Cc1ccccc1)CN(Cc1ccccc1)CC3, the “% Inhibition @ 10 uM” value is reported as -3.33%.
With CCOc1ccc(-c2nc(C#N)c(N3CCN(Cc4ccccc4)CC3)o2)cc1 the “% Inhibition @ 10 uM” value was -3.23%.
With CC(=O)N1CCN(C2CCC(c3ccccc3)CC2)CC1 (stereo not shown) the “% Inhibition @ 10 uM” value was 1.88%.
In the case of COC(=O)C1=C(C)N=c2s/c(=C/c3ccco3)c(=O)n2C1/C=C/c1ccccc1 (stereo not shown), the “% Inhibition @ 10 uM” value is reported as 9.47%.
In the case of Nc1ccc2c(c1)CC(=O)c1ccccc1S2, the “% Inhibition @ 10 uM” value is reported as -0.231%.
With CCCOc1ccc(C2C3=C(O)CCCC3=NC(C)=C2C(=O)Nc2ccccc2OC)cc1 (stereo not shown) the “% Inhibition @ 10 uM” value was 6.29%.
For COc1ccc(Cl)c(Cn2c(NCC(C)O)nc3c2c(=O)n(C)c(=O)n3C)c1 (stereo not shown), the “% Inhibition @ 10 uM” value was -3.24%.
In the case of Cc1cccc(NC(=O)CCCCCN2C(=O)c3ccccc3C2=O)c1, the “% Inhibition @ 10 uM” value is reported as -3.92%.
In the case of COc1ccc(-c2noc(CNC(=O)c3cc(OC)c(OC)cc3OC)n2)cc1, the “% Inhibition @ 10 uM” value is reported as 0.276%.
For CCO/C(O)=C1/C(C)=NC2=C(C(=O)CCC2)C1c1ccc(C(=O)OC)cc1 (stereo not shown), the “% Inhibition @ 10 uM” value was -6.74%.
COc1ccc2[nH]c(C(=O)O)cc2c1 was tested, and the “% Inhibition @ 10 uM” value was 3.66%.
For CCc1ccc(C2CC(c3cccc(OC)c3)n3nc(N)nc3N2)cc1 (stereo not shown), the “% Inhibition @ 10 uM” value was -7.38%.
CC(=O)N1CCC(N(Cc2ccco2)C(=O)NC23CC4CC(CC(C4)C2)C3)CC1 was tested, and the “% Inhibition @ 10 uM” value was -0.35%.
In the case of COc1cccc(-c2cc(N)n(S(=O)(=O)Cc3ccccc3)n2)c1, the “% Inhibition @ 10 uM” value is reported as 5.77%.
In the case of COC(=O)C(Cc1ccccc1)NC(=O)C(C)(C)C (stereo not shown), the “% Inhibition @ 10 uM” value is reported as -1.74%.
With COCCNS(=O)(=O)c1ccc2[nH]c(O)nc2c1 the “% Inhibition @ 10 uM” value was 2.42%.
With COc1ccc2nc(N3C(=O)C(O)=C(C(=O)c4cc5ccccc5o4)C3c3ccc(C)o3)sc2c1 (stereo not shown) the “% Inhibition @ 10 uM” value was 5.3%.
Clc1ccccc1C1C=C(c2cccnc2)Nc2ncnn21 (stereo not shown) was tested, and the “% Inhibition @ 10 uM” value was 1.73%.
With CCCc1nc(SC)ncc1C(=O)NC(C)C12CC3CC(CC(C3)C1)C2 (stereo not shown) the “% Inhibition @ 10 uM” value was 0.107%.
For Cc1sc2c(c1C)CN(Cc1ccco1)CN2C(=O)c1ccccc1, the “% Inhibition @ 10 uM” value was -7.15%.
In the case of COc1ccc(CC(=O)NCc2cn3cccc(C)c3n2)cc1, the “% Inhibition @ 10 uM” value is reported as -1.72%.
For CC(C(=O)N1CCN(c2ccccn2)CC1)n1ccc2cc(S(=O)(=O)N3CCCCCC3)ccc21 (stereo not shown), the “% Inhibition @ 10 uM” value was -0.846%.
With O=C(NCc1ccco1)c1cnn2c3c(cnc12)CCCCC3 the “% Inhibition @ 10 uM” value was 2.82%.
For CN(C)CCCN1C(=O)CSC1c1ccc(Cl)cc1 (stereo not shown), the “% Inhibition @ 10 uM” value was -3.44%.
With CCOc1ccc(CCNC(=O)C2CCCN(S(=O)(=O)c3c(C)n[nH]c3C)C2)cc1OCC (stereo not shown) the “% Inhibition @ 10 uM” value was 2.39%.
In the case of COc1ccccc1CNC(=O)CCc1nc2cccnc2n1Cc1cccs1, the “% Inhibition @ 10 uM” value is reported as 1.62%.
In the case of CCC(Cc1ccccc1)NC(=O)CN(C)S(=O)(=O)c1ccc2nc(C)sc2c1 (stereo not shown), the “% Inhibition @ 10 uM” value is reported as -2.25%.
With O=C(Nc1ncccn1)c1cc(-c2cccc(Br)c2)nc2ccccc12 the “% Inhibition @ 10 uM” value was -2.19%.
Oc1cc(-c2ccccc2)nc(S)n1 was tested, and the “% Inhibition @ 10 uM” value was 3.16%.
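Further: 30 min substrate incubation versus DMSO and 10 µM JCP410 controls.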
